Laboratory results from paper PMC4336329 (PLoS ONE, 2015).
In all, about 310,000 compounds went through this assay and about 2,200 (0.71%) showed an effect of 50% or more. Effects have a minus sign here. The list shows a part of the results.

Biological target: human ether-à-go-go-related gene (hERG) potassium channel (human, UniProt Q12809)
Experiment: primary screen, population patch clamp on CHO cells stably expressing hERG

human ether-à-go-go-related gene (hERG) potassium channel, sequence (Q12809 whole entry, looked up): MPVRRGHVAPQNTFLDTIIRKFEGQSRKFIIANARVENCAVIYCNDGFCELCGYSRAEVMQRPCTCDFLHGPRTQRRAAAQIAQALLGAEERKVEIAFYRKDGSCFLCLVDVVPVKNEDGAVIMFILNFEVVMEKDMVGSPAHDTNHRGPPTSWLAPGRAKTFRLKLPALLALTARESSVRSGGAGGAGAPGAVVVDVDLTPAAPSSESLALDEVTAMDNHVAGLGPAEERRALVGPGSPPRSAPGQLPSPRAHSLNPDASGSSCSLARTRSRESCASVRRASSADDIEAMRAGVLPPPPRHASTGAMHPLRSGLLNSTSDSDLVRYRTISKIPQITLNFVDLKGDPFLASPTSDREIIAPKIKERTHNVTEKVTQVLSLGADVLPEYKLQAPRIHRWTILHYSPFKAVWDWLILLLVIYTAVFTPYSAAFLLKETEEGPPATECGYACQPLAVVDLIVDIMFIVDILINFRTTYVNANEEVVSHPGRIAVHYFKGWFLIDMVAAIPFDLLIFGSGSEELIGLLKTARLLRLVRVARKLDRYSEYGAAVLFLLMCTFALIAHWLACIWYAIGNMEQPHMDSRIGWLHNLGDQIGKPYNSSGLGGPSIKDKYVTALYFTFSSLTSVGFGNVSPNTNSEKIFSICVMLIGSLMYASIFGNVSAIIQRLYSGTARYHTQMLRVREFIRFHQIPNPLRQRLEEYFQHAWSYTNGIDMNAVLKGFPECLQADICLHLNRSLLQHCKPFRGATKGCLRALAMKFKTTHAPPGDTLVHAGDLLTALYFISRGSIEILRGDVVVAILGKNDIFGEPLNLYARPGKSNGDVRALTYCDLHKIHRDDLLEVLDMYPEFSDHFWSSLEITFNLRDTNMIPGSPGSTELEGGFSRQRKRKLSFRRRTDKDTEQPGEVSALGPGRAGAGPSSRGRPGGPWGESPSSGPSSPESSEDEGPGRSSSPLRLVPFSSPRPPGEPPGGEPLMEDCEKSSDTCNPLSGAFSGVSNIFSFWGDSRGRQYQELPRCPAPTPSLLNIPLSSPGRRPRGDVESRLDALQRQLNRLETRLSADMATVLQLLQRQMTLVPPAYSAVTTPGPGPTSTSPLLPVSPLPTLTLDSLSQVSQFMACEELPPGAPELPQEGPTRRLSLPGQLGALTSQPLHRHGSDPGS

Going from COc1ccc(CNC(=O)C(c2ccncc2)N(C(=O)Cc2cccs2)c2cccc(C)c2)cc1 (stereo not shown) to CC(=O)Oc1cc2c(C(=O)NCc3ccncc3)c(C)oc2c2ccccc12, the “hERG current change (%, negative = inhibition) at 1uM” value rises from -2.74% to 10.3%.

Going from CC(C)CCNC(=O)C(=O)NCc1ccccc1 to CC(C)CNC(=O)C(=O)NCc1ccccc1, the “hERG current change (%, negative = inhibition) at 1uM” value rises from 0.144% to 7.59%.

Compared with Cc1cc(C(=O)N2CCN(C(c3ccccc3)c3ccccc3)CC2)on1, O=C(CSc1nnc(-c2ccccc2)n1Cc1ccccc1)NC1CC1 is higher in “hERG current change (%, negative = inhibition) at 1uM” value: -3.82% for the first, 4.44% for the second.

Compared with CC(C)Cc1nnc(NC(=O)Cc2cccs2)s1, CCc1nnc(NC(=O)CCC(=O)N2CCN(c3cc(Cl)ccc3C)CC2)s1 is lower in “hERG current change (%, negative = inhibition) at 1uM” value: 12.3% for the first, 6.2% for the second.

Going from O=c1sc(N2CCN(c3ccc(F)cc3)CC2)nc2ccsc12 to COc1ccc(-c2nsc3c(N4CCN(S(=O)(=O)c5ccccc5F)CC4)ncnc23)cc1, the “hERG current change (%, negative = inhibition) at 1uM” value falls from 9.33% to 3.59%.

First: Cn1c(CC(=O)Nc2ccccc2Cl)nnc1SCC(=O)NC1=NCCS1
Second: CC(=O)Oc1ccc(NC(=O)CSc2ccccc2)cc1
The “hERG current change (%, negative = inhibition) at 1uM” value of the first is higher: 16% for the first, -1.08% for the second.

Going from O=C(CN(Cc1ccccc1)C(=O)CNS(=O)(=O)c1ccc(F)cc1)NCC1CCCO1 (stereo not shown) to O=C(CSc1nnc(-c2ccc(NS(=O)(=O)c3ccccc3)cc2)o1)NCC1CCCO1 (stereo not shown), the “hERG current change (%, negative = inhibition) at 1uM” value rises from 10.9% to 16.5%.

First: CCOC(=O)c1c(OCC)[nH]c2ccc(O)cc12
Second: O=C(Cc1ccc(F)cc1)c1ccc(O)cc1O
The “hERG current change (%, negative = inhibition) at 1uM” value of the first is lower: -1.01% for the first, 12.8% for the second.

Compared with CCOC(=O)N1CCN(Cc2nc(-c3cccc(C)c3)no2)CC1, OCC1CCCN(C2CCN(Cc3nc(Cc4cccc(C(F)(F)F)c4)no3)CC2)C1 (stereo not shown) is lower in “hERG current change (%, negative = inhibition) at 1uM” value: -9.93% for the first, -17.5% for the second.

First: CCOc1cc(C2C(C#N)=C(N)Oc3n[nH]c(C)c32)ccc1OCCN1CCOCC1 (stereo not shown)
Second: COc1ccc(CN2CCNC(=O)C2CC(=O)N2CCCO2)c(OC)c1 (stereo not shown)
The “hERG current change (%, negative = inhibition) at 1uM” value of the first is lower: 13.9% for the first, 15.5% for the second.

Compared with CC(C)n1c(SCc2ccc(Cl)cc2)nc2c1c(=O)[nH]c(=O)n2C, COc1ccc(/C(C)=N/NC(=O)c2ccc(CSc3nncn3C)cc2)cc1 is lower in “hERG current change (%, negative = inhibition) at 1uM” value: 13.3% for the first, 10.7% for the second.

Compared with CC(=O)Nc1cccc(N2CCCC2=O)c1, CC(=O)Nc1ccccc1C(=O)N1CCc2ccccc21 is higher in “hERG current change (%, negative = inhibition) at 1uM” value: 4.99% for the first, 6.02% for the second.

Compared with CC(C)[C@H](NC(=O)c1ccco1)C(=O)OCC(=O)NC12CC3CC(CC(C3)C1)C2, O=C(NC1CCCCC1)NC1CC2CCC(C1)N2C(=S)NCc1ccco1 (stereo not shown) is lower in “hERG current change (%, negative = inhibition) at 1uM” value: 3.18% for the first, 0.0086% for the second.

Compared with COc1cccc(-c2cn3nc4c(nc3n2)CCCC4)c1, Cc1cccc(OCC(=O)Nc2ccc(S(=O)(=O)N3CCCC3)cc2)c1 is higher in “hERG current change (%, negative = inhibition) at 1uM” value: -9.76% for the first, -4.68% for the second.

First: CCOC(=O)N1CCC(NC(=O)CC(NS(=O)(=O)c2ccc(Cl)cc2)c2ccco2)CC1 (stereo not shown)
Second: O=C(CSc1oc(-c2ccco2)nc1S(=O)(=O)c1ccc(F)cc1)NCC1CCCO1 (stereo not shown)
The “hERG current change (%, negative = inhibition) at 1uM” value of the first is lower: -2.12% for the first, -1.9% for the second.

Compared with COc1cccc(C(=O)NNC(=O)C2CC(C)=C(C)CC2C(=O)O)c1 (stereo not shown), CCOC(=O)C/C(C)=N/NC(=O)CNc1cccc(Cl)c1C is lower in “hERG current change (%, negative = inhibition) at 1uM” value: 10.1% for the first, 2.16% for the second.

First: N#CCCn1ccc(NC(=O)c2ccc(Cl)cc2)n1
Second: O=C(Cc1ccc(Cl)cc1)SCc1ccccc1
The “hERG current change (%, negative = inhibition) at 1uM” value of the first is higher: 20.9% for the first, 6.03% for the second.

Going from COc1ccc2c(c1OC)C(=O)N(c1ncn[nH]1)C2 to COc1c(-c2ccccc2)oc2c(ccc3occc32)c1=O, the “hERG current change (%, negative = inhibition) at 1uM” value rises from 14% to 14.9%.

Compared with O=C(CCC1CCCCC1)NCc1ccccn1, O=C(NCC1CCCCC1)c1ccccc1[N+](=O)[O-] is higher in “hERG current change (%, negative = inhibition) at 1uM” value: 4.48% for the first, 14.1% for the second.

First: O=C(/C=C/c1ccc(F)cc1)NCCNC(=O)/C=C/c1ccc(F)cc1
Second: CCc1ccc(-c2nc(CS(=O)CC(=O)NCCc3ccccc3)c(C)o2)cc1 (stereo not shown)
The “hERG current change (%, negative = inhibition) at 1uM” value of the first is higher: 16.8% for the first, 15.9% for the second.

Compared with CC1=C(C(N)=O)C(c2cccs2)NC(=O)N1 (stereo not shown), Cc1ccc(CN2CCCC(C(=O)c3sccc3C)C2)o1 (stereo not shown) is lower in “hERG current change (%, negative = inhibition) at 1uM” value: 4.07% for the first, 1.92% for the second.

Compared with CCN(CC)CCN(C(=O)C1=COCCO1)c1nc2cc3c(cc2s1)OCO3.Cl, CCn1c(=O)c([N+](=O)[O-])c(NCc2ccc3c(c2)OCO3)c2ccccc21 is higher in “hERG current change (%, negative = inhibition) at 1uM” value: -63.3% for the first, 2.5% for the second.

Going from CCn1cc(C(=O)N2CCN(c3ccccc3F)CC2)c(=O)c2ccc(C)nc21 to Cc1ccc(NC(=O)NC(=O)CN2CCN(c3ccc(O)cc3)CC2)c(C)c1, the “hERG current change (%, negative = inhibition) at 1uM” value rises from 7.11% to 11.1%.

First: Cc1nc2c(c(C)nn2-c2ccccc2)c(C)c1CCC(=O)N1CCC2(CC1)OCCO2
Second: Cc1sc2nc(C)n(/N=C/c3ccc(O)cc3)c(=O)c2c1C
The “hERG current change (%, negative = inhibition) at 1uM” value of the first is lower: -3.22% for the first, -2.57% for the second.

Compared with O=C(CSc1nnc(CCc2nc3ccccc3[nH]2)n1-c1ccccc1)NCc1ccco1, C/C(=N\NC(=O)CCc1c[nH]c2ccccc12)c1cccc([N+](=O)[O-])c1 is higher in “hERG current change (%, negative = inhibition) at 1uM” value: -0.738% for the first, 6.95% for the second.

Going from COC(=O)c1ccc(NC2=CC(=O)CC(C)(C)C2)cc1 to COc1ccc(NC(=O)C2CSC(C)(C)N2C=O)cc1 (stereo not shown), the “hERG current change (%, negative = inhibition) at 1uM” value rises from 2.48% to 9.27%.

Going from COc1ccc(/C(C)=N/Nc2ccccc2Cl)c(O)c1 to CNCC[C@H](Oc1cccc2ccccc12)c1cccs1, the “hERG current change (%, negative = inhibition) at 1uM” value falls from 11.2% to 2.71%.

Compared with N#CCCN1CCN(S(=O)(=O)c2ccc(S(=O)(=O)N3CCOCC3)cc2)CC1, Cc1ccc(S(=O)(=O)N2CCC(C(=O)Nc3ccc(S(=O)(=O)N4CCCC4)cc3)CC2)cc1C is higher in “hERG current change (%, negative = inhibition) at 1uM” value: 4.63% for the first, 6.29% for the second.

Going from CC(C)(C)NC(=O)/C(=C\c1ccco1)NC(=O)c1cccs1 to Cc1ccc([N+](=O)[O-])cc1-c1ccc2cccc(C)c2n1, the “hERG current change (%, negative = inhibition) at 1uM” value rises from 8.96% to 14.2%.
